# Test results published in the supplement of paper PMC4604168 (melanoma cell lines).
# Some of the results follow. Most values come without repeats; read them as rough.
# Test system: SkMel30
# Assay: cell count relative to DMSO control; melanoma cells; higher = more viable cells
# Conditions: library dose: standard library concentration; 72 h
# 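Further: cells treated in 1,536-well plates, then fixed and DAPI-stained, with nuclei counted from automated high-throughput microscope images.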
row,SMILES,cell count [%]
1,"CS(=O)(=O)CCNCc1ccc(-c2ccc3ncnc(Nc4ccc(OCc5cccc(F)c5)c(Cl)c4)c3c2)o1 [lapatinib] + O=C(O)C(=O)Nc1sc2c(c1C(=O)O)CCNC2 [TCS401] (first compound 4 µM, partner dose 8.33333 µM)",107
2,"CN1CCN(c2ccc3nc(-c4c(N)c5c(F)cccc5[nH]c4=O)[nH]c3c2)CC1 [Dovitinib] + N#Cc1c(O)c2c(-c3ccc(-c4ccccc4O)cc3)csc2[nH]c1=O [A769662] (first compound 0.5 µM, partner dose 10 µM)",103
3,"C[C@@H](Oc1cc(-c2cnn(C3CCNCC3)c2)cnc1N)c1c(Cl)ccc(F)c1Cl [Crizotinib] + O=C(Nc1ccccc1)c1cc([N+](=O)[O-])ccc1Cl [GW9662] (first compound 1 µM, partner dose 10 µM)",88.2

# Test system: SkMel5
# Assay: as above
# Conditions: library dose: standard library concentration; 72 h
row,SMILES,cell count [%]
1,"CS(=O)(=O)CCNCc1ccc(-c2ccc3ncnc(Nc4ccc(OCc5cccc(F)c5)c(Cl)c4)c3c2)o1 [lapatinib] + COc1cc2ncnc(Nc3ccc(Oc4ccccc4)cc3)c2cc1OC [SrcI1] (first compound 4 µM, partner dose 10 µM)",34.7
2,"CNC(=O)c1cc(Oc2ccc(NC(=O)Nc3ccc(Cl)c(C(F)(F)F)c3)cc2)ccn1 [sorafenib] + COc1ccc2c(c1)CCC1C2CCC2(C)C(NCCCCCCN3C(=O)C=CC3=O)CCC12 [U73122] (first compound 2 µM, partner dose 2 µM)",93.4
3,"CNC(=O)c1cc(Oc2ccc(NC(=O)Nc3ccc(Cl)c(C(F)(F)F)c3)cc2)ccn1 [sorafenib] + Cc1cc([N+](=O)[O-])ccc1NS(=O)(=O)c1cc(Cl)ccc1Cl [FH535] (first compound 2 µM, partner dose 5 µM)",53
4,"CN1CCN(c2ccc3nc(-c4c(N)c5c(F)cccc5[nH]c4=O)[nH]c3c2)CC1 [Dovitinib] + CCc1ccc(CCOc2ccc(CC3SC(=O)NC3=O)cc2)nc1 [pioglitazone] (first compound 0.5 µM, partner dose 10 µM)",67.7
5,"C=CCNC1=C2C[C@@H](C)C[C@H](OC)[C@H](O)[C@@H](C)/C=C(\C)[C@H](OC(N)=O)[C@@H](OC)/C=C\C=C(/C)C(=O)NC(=CC1=O)C2=O [Tanespimycin] + N#Cc1c(O)c2c(-c3ccc(-c4ccccc4O)cc3)csc2[nH]c1=O [A769662] (first compound 0.01 µM, partner dose 10 µM)",83.2
6,"C[C@@H](Oc1cc(-c2cnn(C3CCNCC3)c2)cnc1N)c1c(Cl)ccc(F)c1Cl [Crizotinib] + Oc1nc(-c2ccc(C(F)(F)F)cc2)nc2c1CSCC2 [XAV939] (first compound 1 µM, partner dose 10 µM)",49.2
7,"CS(=O)(=O)CCNCc1ccc(-c2ccc3ncnc(Nc4ccc(OCc5cccc(F)c5)c(Cl)c4)c3c2)o1 [lapatinib] + O=c1cc(-c2cccc3c2Sc2ccccc2S3)oc(N2CCOCC2)c1 [KU55933] (first compound 4 µM, partner dose 5 µM)",53.7
8,"C=CCNC1=C2C[C@@H](C)C[C@H](OC)[C@H](O)[C@@H](C)/C=C(\C)[C@H](OC(N)=O)[C@@H](OC)/C=C\C=C(/C)C(=O)NC(=CC1=O)C2=O [Tanespimycin] + CCN(CC)CCCCNc1ncc2cc(-c3cc(OC)cc(OC)c3)c(NC(=O)NC(C)(C)C)nc2n1 [PD173074] (first compound 0.01 µM, partner dose 0.5 µM)",83
9,"CS(=O)(=O)CCNCc1ccc(-c2ccc3ncnc(Nc4ccc(OCc5cccc(F)c5)c(Cl)c4)c3c2)o1 [lapatinib] + CCc1ccc(CCOc2ccc(CC3SC(=O)NC3=O)cc2)nc1 [pioglitazone] (first compound 4 µM, partner dose 10 µM)",53.2
10,"CN1CCN(c2ccc3nc(-c4c(N)c5c(F)cccc5[nH]c4=O)[nH]c3c2)CC1 [Dovitinib] + COc1cc(N2CCC(N3CCN(C)CC3)CC2)ccc1Nc1ncc(Cl)c(Nc2ccccc2S(=O)(=O)C(C)C)n1 [NVP-TAE684] (first compound 0.5 µM, partner dose 0.4 µM)",41.8
11,"CS(=O)(=O)CCNCc1ccc(-c2ccc3ncnc(Nc4ccc(OCc5cccc(F)c5)c(Cl)c4)c3c2)o1 [lapatinib] + COc1ccc2c(c1)CCC1C2CCC2(C)C(NCCCCCCN3C(=O)C=CC3=O)CCC12 [U73122] (first compound 4 µM, partner dose 2 µM)",43.2
12,"CNC(=O)c1cc(Oc2ccc(NC(=O)Nc3ccc(Cl)c(C(F)(F)F)c3)cc2)ccn1 [sorafenib] + CCN(CC)CCCCNc1ncc2cc(-c3cc(OC)cc(OC)c3)c(NC(=O)NC(C)(C)C)nc2n1 [PD173074] (first compound 2 µM, partner dose 0.5 µM)",109
13,"C=CCNC1=C2C[C@@H](C)C[C@H](OC)[C@H](O)[C@@H](C)/C=C(\C)[C@H](OC(N)=O)[C@@H](OC)/C=C\C=C(/C)C(=O)NC(=CC1=O)C2=O [Tanespimycin] + CCCCCCCCCCCC1=C(O)C(=O)C=C(O)C1=O [Embelin] (first compound 0.01 µM, partner dose 6 µM)",58.6
14,"C=CCNC1=C2C[C@@H](C)C[C@H](OC)[C@H](O)[C@@H](C)/C=C(\C)[C@H](OC(N)=O)[C@@H](OC)/C=C\C=C(/C)C(=O)NC(=CC1=O)C2=O [Tanespimycin] + COc1ccc2c(c1)CCC1C2CCC2(C)C(NCCCCCCN3C(=O)C=CC3=O)CCC12 [U73122] (first compound 0.01 µM, partner dose 2 µM)",94.8
15,"CNC(=O)c1cc(Oc2ccc(NC(=O)Nc3ccc(Cl)c(C(F)(F)F)c3)cc2)ccn1 [sorafenib] + O=C1NC(=O)/C(=C/c2ccc(-c3ccc(F)cc3O)o2)S1 [AS252424] (first compound 2 µM, partner dose 5 µM)",94.2
16,"CN1CCN(c2ccc3nc(-c4c(N)c5c(F)cccc5[nH]c4=O)[nH]c3c2)CC1 [Dovitinib] + Oc1nc(-c2ccc(C(F)(F)F)cc2)nc2c1CSCC2 [XAV939] (first compound 0.5 µM, partner dose 10 µM)",61.3
17,"CS(=O)(=O)CCNCc1ccc(-c2ccc3ncnc(Nc4ccc(OCc5cccc(F)c5)c(Cl)c4)c3c2)o1 [lapatinib] + CCCCCCCCCCCC1=C(O)C(=O)C=C(O)C1=O [Embelin] (first compound 4 µM, partner dose 6 µM)",58.7
18,"CN1CCN(c2ccc3nc(-c4c(N)c5c(F)cccc5[nH]c4=O)[nH]c3c2)CC1 [Dovitinib] + COc1ccc(-c2ccc3c(N4CCOCC4)nc(N4C[C@@H](C)O[C@@H](C)C4)nc3n2)cc1CO [KU0063794] (first compound 0.5 µM, partner dose 0.1 µM)",70.3
19,"C=CCNC1=C2C[C@@H](C)C[C@H](OC)[C@H](O)[C@@H](C)/C=C(\C)[C@H](OC(N)=O)[C@@H](OC)/C=C\C=C(/C)C(=O)NC(=CC1=O)C2=O [Tanespimycin] + COc1ccc(-c2ccc3c(N4CCOCC4)nc(N4C[C@@H](C)O[C@@H](C)C4)nc3n2)cc1CO [KU0063794] (first compound 0.01 µM, partner dose 0.1 µM)",63
20,"CN1CCN(c2ccc3nc(-c4c(N)c5c(F)cccc5[nH]c4=O)[nH]c3c2)CC1 [Dovitinib] + COc1cc2ncnc(Nc3ccc(Oc4ccccc4)cc3)c2cc1OC [SrcI1] (first compound 0.5 µM, partner dose 10 µM)",59.1
21,"C=CCNC1=C2C[C@@H](C)C[C@H](OC)[C@H](O)[C@@H](C)/C=C(\C)[C@H](OC(N)=O)[C@@H](OC)/C=C\C=C(/C)C(=O)NC(=CC1=O)C2=O [Tanespimycin] + O=c1cc(-c2cccc3c2Sc2ccccc2S3)oc(N2CCOCC2)c1 [KU55933] (first compound 0.01 µM, partner dose 5 µM)",84.3
22,"C=CCNC1=C2C[C@@H](C)C[C@H](OC)[C@H](O)[C@@H](C)/C=C(\C)[C@H](OC(N)=O)[C@@H](OC)/C=C\C=C(/C)C(=O)NC(=CC1=O)C2=O [Tanespimycin] + COc1ccc(COc2ccc(Cc3cnc(N)nc3N)cc2OC)cc1 [GW2580] (first compound 0.01 µM, partner dose 5 µM)",69.5
23,"CNC(=O)c1cc(Oc2ccc(NC(=O)Nc3ccc(Cl)c(C(F)(F)F)c3)cc2)ccn1 [sorafenib] + N#Cc1c(O)c2c(-c3ccc(-c4ccccc4O)cc3)csc2[nH]c1=O [A769662] (first compound 2 µM, partner dose 10 µM)",98.6
24,"CN1CCN(c2ccc3nc(-c4c(N)c5c(F)cccc5[nH]c4=O)[nH]c3c2)CC1 [Dovitinib] + O=C1NC(=O)/C(=C/c2ccc(-c3ccc(F)cc3O)o2)S1 [AS252424] (first compound 0.5 µM, partner dose 5 µM)",64.2
25,"CNC(=O)c1cc(Oc2ccc(NC(=O)Nc3ccc(Cl)c(C(F)(F)F)c3)cc2)ccn1 [sorafenib] + O=C(O)C(=O)Nc1sc2c(c1C(=O)O)CCNC2 [TCS401] (first compound 2 µM, partner dose 8.33333 µM)",72.8
26,"C[C@@H](Oc1cc(-c2cnn(C3CCNCC3)c2)cnc1N)c1c(Cl)ccc(F)c1Cl [Crizotinib] + COc1cc2ncnc(Nc3ccc(Oc4ccccc4)cc3)c2cc1OC [SrcI1] (first compound 1 µM, partner dose 10 µM)",64
